# Measured values: the supplement of paper PMC3334620
# Over roughly 33,000 sequences, “E-score (-0.5 to 0.5)” has its median near -0.032; the highest 2% begin near 0.36. Some of the results follow.
# Biological target: T1, Sko1 (UniProt Q02100)
# T1 sequence: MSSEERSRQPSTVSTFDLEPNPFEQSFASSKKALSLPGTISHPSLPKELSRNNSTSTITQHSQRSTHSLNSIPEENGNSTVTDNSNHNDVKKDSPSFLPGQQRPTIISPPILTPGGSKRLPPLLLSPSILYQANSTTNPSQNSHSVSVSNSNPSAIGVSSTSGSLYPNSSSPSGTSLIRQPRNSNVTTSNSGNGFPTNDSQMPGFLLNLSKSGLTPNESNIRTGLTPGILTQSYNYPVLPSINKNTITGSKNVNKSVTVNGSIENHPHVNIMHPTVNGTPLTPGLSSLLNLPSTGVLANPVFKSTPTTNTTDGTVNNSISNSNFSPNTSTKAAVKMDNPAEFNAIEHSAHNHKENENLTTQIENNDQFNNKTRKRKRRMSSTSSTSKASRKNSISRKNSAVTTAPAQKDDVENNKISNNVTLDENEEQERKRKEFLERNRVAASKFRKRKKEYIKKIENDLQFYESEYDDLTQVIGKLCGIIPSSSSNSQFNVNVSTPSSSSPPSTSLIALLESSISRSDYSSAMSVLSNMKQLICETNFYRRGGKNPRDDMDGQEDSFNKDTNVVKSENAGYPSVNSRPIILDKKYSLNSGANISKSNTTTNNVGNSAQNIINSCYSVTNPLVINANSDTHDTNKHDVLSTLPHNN
# Experiment: PBM E-score (8-mer binding enrichment) (E-score (-0.5 to 0.5)); higher = stronger / more preferred TF binding; most listed sequences are background and not binding sites
# Details: protein concentration: 200 nM; construct: GST-full length
# Method in brief: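 The E-score, a modified Wilcoxon-Mann-Whitney statistic, was computed by the Universal PBM Analysis Suite for every ungapped eight-base word pooled with its reverse complement. Scans behind it were normalised with masliner after bound GST-tagged yeast transcription factors were detected with fluorescent anti-GST. The proteins, at about 100-200 nM, had been applied to universal all-10-mer Agilent arrays made double-stranded by primer extension.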
row,Sequence,PBM E-score
1,ATATCAAA,0.0923
2,TAGATCTA,0.187
3,AGCCGTTC,-0.271
4,CTGCATTC,0.0642
5,AAGTCGTC,0.161
6,CAACACAC,0.154
7,GACAGAGC,-0.236
8,AAAAAGGG,-0.145
9,AGGGAAAA,-0.00111
10,AGAGGGTC,-0.258
11,AACTGGGA,-0.188
12,GCTACCCA,-0.253
13,GCTGGCCA,-0.229
14,ACAGACAA,0.162
15,CCTACTTA,-0.00728
16,AGACGGGC,-0.247
17,AAGTCTCT,-0.165
18,GAGCTCAC,-0.192
19,CAATGTGA,0.243
20,ATCTACAG,-0.0684
21,TATGCGGA,-0.0556
22,ACGGATTC,-0.087
23,CGCACGCA,0.211
24,AGCTCGGA,-0.295
25,CAGGGACA,-0.103

row,Sequence,PBM E-score
1,GTATTTCA,0.239
2,CACCCCAC,0.0181
3,AGTGTTGG,-0.143
4,TAGGAAGA,-0.185
5,GAGGCGCC,-0.117
6,CGTTGTTA,0.162
7,CAACTACG,0.31
8,CGAGTACG,0.226
9,CGCTGGGA,-0.283
10,AAATATCG,0.196
11,TCTGTAAA,-0.0019
12,ACCAAGGT,-0.0516
13,ACCATCCT,-0.0485
14,CTGAGGCC,-0.213
15,TGCTAGAA,0.0276
16,GTCTCCTA,0.0919
17,GATCGGAA,-0.139
18,ATTAACTG,0.272
19,GATAATGC,0.026
20,ACAAAGAA,0.264
21,GAATAAGC,-0.0229
22,AATCAGCT,0.165
23,CGTGACGC,0.422
24,CAAACCCC,-0.191
25,AACAGCGT,0.0503

row,Sequence,PBM E-score
1,CGAGGCAA,-0.12
2,CGAATAAA,0.16
3,TCACTCGA,0.0405
4,ATCGGTAA,0.0669
5,AGGCACAG,-0.128
6,AGCCTTGA,-0.062
7,AGTTGCTA,0.175
8,CAGACACA,0.112
9,CTAGGGTC,-0.163
10,CACGGGCG,-0.325
11,AACACCAT,0.0371
12,ACAAAAAT,0.218
13,AGAAGTGA,-0.0731
14,ATCTTAGC,0.00882
15,CGGCGTAC,-0.0639
16,AACGCAAA,0.175
17,ATAACGCG,0.184
18,GCATTAAA,0.184
19,CCGAAGGC,-0.292
20,GATAGCGC,-0.0838
21,AGATGGCC,-0.0253
22,ACTACTCG,0.0191
23,GGATGAAA,0.033
24,CTTCTAGC,-0.283
25,CATGGAAC,-0.157

row,Sequence,PBM E-score
1,CTCAAGAA,-0.117
2,CCACTGCC,-0.139
3,AAGCCGCC,-0.418
4,AGAGTACC,-0.0677
5,ACTAAGGG,-0.238
6,AGCAGTTA,0.0416
7,CTTCTCTA,-0.284
8,AATACCTC,-0.0107
9,AGAACCAT,0.092
10,TAATTTAA,0.268
11,GATCTGCA,-0.192
12,CATAGTCC,-0.0594
13,TCTTCTAA,0.038
14,ACGCAAGC,0.327
15,ATGATCAC,0.184
16,CACCGTGA,-0.0965
17,ACGCCGCT,-0.0909
18,ACCCGCAG,-0.158
19,AAACCTAC,0.0275
20,AACATATT,0.167
21,GGTCATTA,0.232
22,ACGGAAGT,-0.0514
23,CGGATGTC,-0.264
24,CCGTCACC,0.101
25,ACATCAGG,0.0353

row,Sequence,PBM E-score
1,AACGTTCT,0.167
2,ATGCCATA,0.089
3,AGAGGGCT,-0.406
4,ATTTAGGG,0.0528
5,ACGCATTA,0.293
6,AGGATACT,-0.102
7,AGAATAGA,0.0185
8,ACCAGCAT,-0.0909
9,ATTGTTTG,0.17
10,TCAGTTCA,0.0281
11,ACTTGCAA,0.0608
12,AAGGTAAC,0.0186
13,TGGGCACA,-0.00527
14,ATGGGCAA,-0.138
15,GTGTGAAC,0.0263
16,AACCCTGT,-0.266
17,AGCCCTTG,-0.296
18,GATTGCTA,-0.0351
19,GGGAGAAC,-0.181
20,TAGATCGA,0.0983
21,CACTATCC,-0.124
22,CCGATGGC,-0.219
23,AAAAAAGC,0.126
24,GATCGGCA,-0.198
25,CGCGACCC,-0.00302

row,Sequence,PBM E-score
1,TGCTAAAA,0.0515
2,CAATTCTG,-0.209
3,TCGACAGA,-0.0554
4,AATGGTCA,0.0593
5,GCTGAATA,0.064
6,ATAATTTA,0.222
7,ACGTCCAG,0.224
8,AGAAGACT,-0.156
9,CATTTGCG,0.179
10,AATACTCT,0.0267
11,ATCCCTCA,-0.128
12,AGTGCGAA,-0.188
13,CTAGCCAA,-0.0615
14,CGTACCCA,0.133
15,TACGTTAA,0.413
16,AGAATCTC,-0.0337
17,ATTACGGC,0.303
18,GTTGGAAA,-0.00433
19,GCTCATTA,0.0713
20,GGTATACA,0.0243
21,CCGGCCCG,-0.325
22,ATAGGAAC,-0.00132
23,ATACCTTG,0.0186
24,AAACAGAG,0.02
25,AGGCATAT,0.127

row,Sequence,PBM E-score
1,ACTGCAGG,-0.11
2,GGGTTCCA,-0.342
3,GTGCTATA,0.182
4,CTTCAAGC,-0.107
5,GAGCCCTC,-0.351
6,CAGAGTTA,0.0112
7,ACGATTGA,0.157
8,CCACCCGA,-0.113
9,CGACCGTA,-0.292
10,CCCATGGA,-0.189
11,CATTGAAA,0.23
12,AGCTGTAC,-0.0899
13,ATTCATGG,-0.00923
14,GCCGCTAA,-0.248
15,ATACATGA,0.183
16,CGCCAAGA,-0.248
17,ACCTGCAA,-0.178
18,CAATTCTA,0.0756
19,AAGTTCTA,0.0364
20,CGACCTTA,0.0387
21,AATAGGTA,0.184
22,TTATTGAA,0.0971
